# Paper PMC6919601, “Identification of Plasmodium dipeptidyl aminopeptidase allosteric inhibitors by high throughput screening” (PLoS ONE, 2019)
# Where “and” joins values, the source holds several entries; their conditions need not be identical. Identical values can stand only once. In all, about 110,000 compounds went through this assay and about 230 (0.21%) showed an effect of 50% or more. Some of the results follow.
# Target: DPAP1 (Plasmodium falciparum, UniProt Q8IIJ9)
# Assay: primary screen, percent inhibition; read by cleavage of a fluorogenic dipeptide substrate; higher = more effect of the substance
# Parameters: species or system P. falciparum D10 trophozoite lysates; single well
# 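Further: 30 min substrate incubation versus DMSO and 10 µM JCP410 controls.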
# Sequence of DPAP1 (Q8IIJ9 whole entry, looked up): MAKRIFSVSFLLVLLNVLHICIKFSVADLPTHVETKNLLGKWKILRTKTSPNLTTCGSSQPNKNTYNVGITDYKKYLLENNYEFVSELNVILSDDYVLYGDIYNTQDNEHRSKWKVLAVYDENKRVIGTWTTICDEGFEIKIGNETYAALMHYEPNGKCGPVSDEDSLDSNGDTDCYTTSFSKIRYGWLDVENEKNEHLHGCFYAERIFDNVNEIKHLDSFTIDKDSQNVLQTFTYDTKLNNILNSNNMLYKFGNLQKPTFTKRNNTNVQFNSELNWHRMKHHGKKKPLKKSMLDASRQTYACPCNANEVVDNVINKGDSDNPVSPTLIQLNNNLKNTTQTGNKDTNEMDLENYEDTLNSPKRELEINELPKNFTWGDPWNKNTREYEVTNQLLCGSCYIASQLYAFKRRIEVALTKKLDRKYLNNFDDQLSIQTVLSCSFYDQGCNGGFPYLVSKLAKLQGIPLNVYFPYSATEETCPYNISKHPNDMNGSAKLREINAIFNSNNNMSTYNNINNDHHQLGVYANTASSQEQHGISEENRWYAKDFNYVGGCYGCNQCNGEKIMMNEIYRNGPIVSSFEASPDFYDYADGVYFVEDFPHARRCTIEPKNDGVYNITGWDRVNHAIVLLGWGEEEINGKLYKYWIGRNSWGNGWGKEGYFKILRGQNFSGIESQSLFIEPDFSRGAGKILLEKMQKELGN
row,Structure (SMILES),% Inhibition @ 10 uM
1,COc1ccc(CSc2nc3ccccc3[nH]2)cc1,-0.053%
2,COc1ccccc1OCC(=O)N(Cc1nc(-c2ccccc2)no1)C1CCCCC1,2.14%
3,CN1CCC(N(C)C2CCN(CCc3ccccc3)CC2)CC1,-3.6%
4,Cc1ccsc1/C=C(/C#N)c1nc(C2CC2)cs1,7.49%
5,CN1CCN(C(=O)c2cccc(Br)c2)CC1,-0.261%
6,C=CCN1C(=O)C(O)=C(C(=O)c2ccc(C)cc2)C1c1ccc(C)cc1 (centres unmarked),0.992%
7,COc1cc2c(cc1OC)C(C(=O)NCC1CCCO1)C(c1cccnc1)N(C)C2=O (centres unmarked),-3.79%
8,Cc1ccc(C(=O)Nc2cccc3ccccc23)o1,-1.38%
9,COc1ccccc1C(=O)OCCNC1=NS(=O)(=O)c2ccccc21,6.76%
10,CCn1c(C(O)c2ccccc2OC)nc2ccccc21 (centres unmarked),3.61%
11,Cc1ccccc1NC(=O)c1ccc(Br)cc1,-0.856%
12,Cc1c(C(=O)NCCC2=CCCCC2)oc2ccc3c(c12)C(=O)CC(C)(C)O3,-5.15%
13,Cc1cc(S(=O)(=O)Nc2noc3ccccc23)ccc1F,0.569%
14,CCOC(=O)c1[nH]c2ccccc2c1NC(=O)c1ccc(S(=O)(=O)N(C)C)cc1,-5.77%
15,O=C(c1ccc(F)cc1)n1cnc2ccccc21,0.486%
16,COc1ccc(NC(=S)NC(=O)c2ccccc2Cl)cc1,1.35%
17,CNC(=O)c1ccc2[nH]c(C)c(C)c2c1,0.0489%
18,Cc1ccc2[nH]c(-c3ccc(NC(=O)C(C)(C)C)cc3)nc2c1,-1.89%
19,CCOC(=O)C1CCN(Cc2cccc(OC)c2)CC1,-3.56%
20,CCc1cc2c(=O)c(-c3nc(C)cs3)c(C(=O)O)oc2cc1O,2.31%
21,O=C(c1ccoc1)N1CCN(c2nn3nnnc3c3ccccc23)CC1,-2.7%
22,O=S(=O)(c1ccc(Cl)cc1)N1CCc2ccccc21,-0.856%
23,Cc1ccc(C)c(NC(=O)C2CCC(C)(C(=O)O)C2(C)C)c1 (centres unmarked),-1.89%
24,Cc1ccc(N2CC(C(=O)Nc3ccc(C)c(Cl)c3)CC2=O)cc1 (centres unmarked),5.04%
25,O=C(NCc1ccccc1)c1cnccn1,39.3%
26,COc1cc(OC)c(C2C(C#N)=C(N)Oc3cc(N)ccc32)cc1Br (centres unmarked),4.66%

row,Structure (SMILES),% Inhibition @ 10 uM
1,CCOC(=O)c1c(NC(=O)CSc2nnc(-c3cc(C)on3)o2)sc(C)c1C,5.93%
2,Fc1ccccc1-n1ncc2c1ncn1nc(-c3ccc(Cl)cc3Cl)nc21,-1.11%
3,CN(Cc1ccccc1)C(=O)c1ccc(Cl)c([N+](=O)[O-])c1,2.46%
4,O=S(=O)(c1ccc(Cl)c(Cl)c1Cl)N1CCN(Cc2ccccc2)CC1,2.8%
5,Cc1ccc(-c2c(C(=O)N3CCC(C)CC3)oc(=O)c3ccccc23)cc1,-1.54%
6,COc1cc(/C=C(/C#N)c2nc(-c3ccc4c(c3)OCO4)cs2)ccc1O,-0.305%
7,Cn1c(=O)[nH]c(=O)c2c1nc(NCCCn1ccnc1)n2CCCc1ccccc1,-1.47%
8,CCOc1c([N+](=O)[O-])cc2c(C)c(C(=O)N3CCN(C)CC3)oc2c1OCC,1.8%
9,O=C(COc1ccc(Cl)cc1Cl)N1CCc2ccccc21,10.9%
10,O=C(NCCC1=CCCCC1)c1ccc2c(c1)OCO2,2.95%
11,CCOC(=O)CC1(O)CCOC(C)(C)C1 (centres unmarked),0.132%
12,Cc1cccc(NC(=O)c2onc3c2CCCC3)c1C,-8.73%
13,O=C(NCc1ccccc1Cl)c1ccc2c(c1)ncn2C1CCCC1,0.387%
14,COc1ccc(-c2nc(CSCC(=O)NC3CCCCC3)c(C)o2)cc1,2.37%
15,Cc1c(Cl)cccc1-c1ccc(C(=O)Nc2ccccn2)o1,6.22%
16,CCOC(=O)C1=CN(Cc2ccc(Cl)cc2)C=C(C(=O)OCC)C1c1ccc(OC)cc1OC,3.45%
17,CC(=O)c1c(C)oc2ccc(N(C(C)=O)S(=O)(=O)c3cc(C)c(C)cc3C)cc12,3.37%
18,COc1ccc2nc(NC(=O)c3ccc(C)cc3)sc2c1,-2.05%
19,COCCn1c(C)cc(C(=O)C(=O)Nc2nnc(CSCc3ccccc3)s2)c1C,3.92%
20,CC1(C)Cc2c(oc(N)c2C#N)CO1,0.774%
21,CN1C(=O)C2C=CC1C1C(=O)N(Cc3ccccc3)C(=O)C21 (centres unmarked),5.77%
22,O=C(COc1ccccc1)Nc1cccc(C(=O)Nc2cccc(Cl)c2)c1,-6.66%
23,CCC(=O)Nc1c2c(nc3ccccc13)N(C)CC2,2.13% and -4.33%
24,COc1ccccc1CN1C[C@@H]2C[C@H](C1)c1cccc(=O)n1C2,-3.63%
25,COc1ccc(/C=C(\NC(=O)c2ccc(C)cc2)C(=O)N2CCOCC2)cc1,0.222%
26,O=C1CC(c2ccc(Cl)cc2)NC(NC(=O)c2ccccc2F)=N1 (centres unmarked),1.66%

row,Structure (SMILES),% Inhibition @ 10 uM
1,CC(C)C[C@H](NC(=O)c1cccc([N+](=O)[O-])c1)C(=O)NCC#N,-2.35%
2,CC1CCN(S(=O)(=O)c2ccc(C3CCCCC3)cc2)CC1,4.37%
3,Cc1cc(C)c2c(=O)n(CC(=O)NCc3ccc4c(c3)OCO4)sc2n1,12%
4,O=C(NC1(C(F)(F)F)C(=O)Nc2c1c(=O)[nH]c(=O)n2-c1ccc(Cl)cc1)c1ccco1 (centres unmarked),-7.56%
5,Cn1ccc(C(=O)Nc2sc3c(c2C#N)CCCC3)n1,2.36%
6,CCOc1cccc(C2CC(=O)NC3=C2C(=O)CC(C)(C)C3)c1 (centres unmarked),-5.88%
7,COc1ccc(C2C(C#N)=C(N)N(c3nc[nH]n3)C3=C2C(=O)CCC3)c(OC)c1 (centres unmarked),-1.38%
8,COCCCNC(=O)c1c(NC(=O)c2oc3ccccc3c2C)sc2c1CCCC2,0.83%
9,Cc1ccc(-c2cc3nc4c(c(O)n3n2)CCCC4)cc1,-0.169%
10,O=C(CN(C1CCCCC1)S(=O)(=O)c1ccc(Cl)cc1)NCc1ccncc1,4.03%
11,CCOc1cc(C2Nc3ccccc3C(=O)N2Cc2ccco2)ccc1O (centres unmarked),7.46%
12,CCOc1ccc(-c2nc(CSCC(=O)NCCCN3CCCC3)c(C)o2)cc1,-0.971%
13,Cn1c2c(c(=O)n(C)c1=O)C(c1ccc(O)cc1)C1C(=O)c3ccccc3C1=N2 (centres unmarked),-17.2%
14,CCCC1=NN2C(=N)/C(=C/c3c[nH]c4ccccc34)C(=O)N=C2S1,4.01%
15,Cn1c(=O)c2c(nc(OCc3ccc4c(c3)OCO4)n2Cc2ccccc2)n(C)c1=O,0.0645%
16,CC(C)c1ccc(/C=c2\sc3ncnn3c2=O)cc1,5.12%
17,COc1ccc(C2CC(c3ccccc3OC(F)F)n3nnnc3N2)cc1 (centres unmarked),-1.62%
18,COC(=O)C1=CN(C)C=C(C(=O)OC)C1c1ccccc1C,-5.26%
19,c1ccc(-c2cc3c(ccc4nonc43)nn2)cc1,-0.294%
20,CN(Cc1ccccc1)C(=O)C1CCCN(Cc2cc(Br)ccc2O)C1 (centres unmarked),2.25%
21,CC(C)NC(=O)c1ccc(N(Cc2ccc(Cl)cc2)S(C)(=O)=O)cc1,-4.82%
22,OCC1CCCCN1Cc1ccc(Cl)cc1 (centres unmarked),-1.62%
23,CCSC1=C(C#N)C(CC(C)C)C2=C(O)CCCC2=N1 (centres unmarked),-1.32%
24,CC1Cc2cc(C(=O)C3=C(O)C(=O)N(CC4CCCO4)C3c3ccncc3)ccc2O1 (centres unmarked),-7.28%
25,COCCCN1C(=O)C(O)=C(C(=O)c2ccc(C)cc2)C1/C=C/c1ccccc1 (centres unmarked),3.66%
26,CCOCCCNC(=O)C(C)Sc1ccc(Cl)cc1 (centres unmarked),1.71%

row,Structure (SMILES),% Inhibition @ 10 uM
1,CCCCCn1c(=N)c(S(=O)(=O)c2ccc(Cl)cc2)cc2c(=O)n3cccc(C)c3nc21,0.0069%
2,Cc1ccc(SCC(=O)NCC(C)C)cc1,0.674%
3,COc1ccc(C2C3=C(N=C4SCC(=O)N42)c2ccccc2CC3)cc1OC (centres unmarked),0.528%
4,COc1cccc(-c2nnc(-c3ccc(OC)c(OC)c3)o2)c1,2.41%
5,Cn1nnnc1SCCCNCc1ccc(F)cc1,-4.71%
6,O=C(NC12CC3CC(CC(C3)C1)C2)C(F)(F)F,5.98%
7,O=C1OC(c2ccc(-c3ccccc3)cc2)=N/C1=C\c1ccc2c(c1)OCO2,-6.77%
8,O=C(NCc1nc(-c2ccccc2)no1)c1ccc(Br)cc1,-2.99%
9,CC(C)(C)C1CCc2c(sc(NC(=O)CCCC(=O)O)c2C#N)C1 (centres unmarked),-0.413%
10,COc1cc(C2C(C#N)=C(N)N(c3nc[nH]n3)C3=C2C(=O)CCC3)cc(OC)c1OC (centres unmarked),3.99%
11,O=C(Nc1ccc(Cl)cn1)c1cccc2c(Br)cccc12,5.98%
12,O=C(C1=C(O)C(=O)N(CCCn2ccnc2)C1c1cccc(O)c1)c1ccc2c(c1)OCCO2 (centres unmarked),0.245%
13,COc1cc(OC)c(NC(=O)c2ccc(Br)o2)cc1Cl,3.74%
14,CC(C)OC(=O)c1c(NC(=O)C2CCCCC2)sc2c1CCCC2,-1.1%
15,O=S(=O)(CC(CN1CCCCC1)N1CCCCC1)c1ccc2ccccc2c1 (centres unmarked),-3.13%
16,CCOCCn1c(CN2CCCC(C)C2)nc2c1c(=O)n(C)c(=O)n2C (centres unmarked),-3.23%
17,CCOc1ccc(CN2CCN(c3ncccn3)CC2)cc1,-5.57%
18,Cc1ccc(CNC(=O)c2[nH]nc3c2CCCC3)cc1,3.24%
19,COc1ccccc1NC(=O)CN(Cc1ccccc1)S(C)(=O)=O,-7.18%
20,O=C(Cn1ccc2cc(S(=O)(=O)N3CCCCC3)ccc21)N1CCCCC1,-2%
21,CCCNC(=O)C1CCN(S(=O)(=O)c2ccc3nc(O)ccc3c2)CC1,0.589%
22,COc1ccc(CCn2c3c(c(=O)[nH]c2=O)C(Nc2ncccn2)(C(F)(F)F)C(=O)N3)cc1OC (centres unmarked),-2.05%
23,COC(=O)C1=C(C)N(Cc2ccccc2)C(=O)C1(NC(=O)CCc1ccccc1)C(F)(F)F (centres unmarked),0.221%
